Assay results: PMC4336329 (PLoS ONE, 2015)
Hit rate of the full screen: of about 310,000 compounds, about 14,000 (4.5%) showed an effect of 50% or more. Effects have a minus sign here. The list shows a part of the results.

molecular target: human ether-à-go-go-related gene (hERG) potassium channel (human, UniProt Q12809); assay: primary screen, population patch clamp on CHO cells stably expressing hERG
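Further: peak tail current of the secondary pulse compared with the same well before compound.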

Chain of human ether-à-go-go-related gene (hERG) potassium channel (Q12809 whole entry, looked up): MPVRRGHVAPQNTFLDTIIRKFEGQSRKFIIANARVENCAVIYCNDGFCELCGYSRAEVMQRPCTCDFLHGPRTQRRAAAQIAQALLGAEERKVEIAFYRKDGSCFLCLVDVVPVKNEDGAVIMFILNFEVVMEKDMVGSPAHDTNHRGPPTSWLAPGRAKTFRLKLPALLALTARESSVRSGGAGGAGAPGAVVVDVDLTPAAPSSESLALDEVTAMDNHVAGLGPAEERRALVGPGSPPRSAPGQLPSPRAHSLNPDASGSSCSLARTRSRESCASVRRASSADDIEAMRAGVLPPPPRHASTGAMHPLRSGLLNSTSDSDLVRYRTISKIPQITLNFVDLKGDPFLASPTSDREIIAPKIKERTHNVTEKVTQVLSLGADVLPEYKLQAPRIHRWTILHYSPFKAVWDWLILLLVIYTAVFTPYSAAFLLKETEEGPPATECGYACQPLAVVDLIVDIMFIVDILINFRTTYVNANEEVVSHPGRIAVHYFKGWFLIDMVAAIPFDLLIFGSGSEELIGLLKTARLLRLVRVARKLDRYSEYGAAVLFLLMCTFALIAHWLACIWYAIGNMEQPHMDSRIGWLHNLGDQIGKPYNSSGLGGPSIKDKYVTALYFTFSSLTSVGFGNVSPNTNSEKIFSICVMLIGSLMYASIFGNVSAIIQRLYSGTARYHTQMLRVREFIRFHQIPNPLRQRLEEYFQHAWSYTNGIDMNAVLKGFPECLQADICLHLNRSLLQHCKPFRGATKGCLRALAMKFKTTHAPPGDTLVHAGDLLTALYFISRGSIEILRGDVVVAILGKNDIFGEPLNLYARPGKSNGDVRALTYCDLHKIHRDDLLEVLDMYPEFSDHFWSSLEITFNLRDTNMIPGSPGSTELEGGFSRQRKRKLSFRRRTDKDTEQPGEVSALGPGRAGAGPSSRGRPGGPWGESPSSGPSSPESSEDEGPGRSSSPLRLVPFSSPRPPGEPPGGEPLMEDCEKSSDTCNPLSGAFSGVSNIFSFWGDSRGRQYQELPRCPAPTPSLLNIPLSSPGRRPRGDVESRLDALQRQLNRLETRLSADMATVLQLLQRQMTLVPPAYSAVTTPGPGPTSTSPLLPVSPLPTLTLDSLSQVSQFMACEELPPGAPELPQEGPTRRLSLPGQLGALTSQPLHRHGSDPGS

Compound | hERG current change (%, negative = inhibition) at 10uM [%]
Cc1ccc(/C=N/NC(=O)CCn2nc(C)cc2C)c(C)c1 | -5.4
CC1=N/C(=C\c2ccc([N+](=O)[O-])cc2)C(=O)N1c1ccc(F)cc1F | 13.1
Cc1ccc(S(=O)(=O)c2c(C)nn(C(C)(C)C)c2OC(=O)c2ccc(Br)o2)cc1 | 7.32
COc1cccc(N2CCN(c3ccc4nnc(CCC(=O)Nc5ccc(OC)c(OC)c5)n4n3)CC2)c1 | -7.55
NC(=O)c1cc[n+](CC(=O)NC(=O)Nc2ccccc2)cc1 | 2.81
CCOc1cc(S(=O)(=O)Nc2ccccc2CC)ccc1Cl | -18.9
O=S(=O)(c1ccccc1)[C@@]1(c2ccccc2)C[C@@H]2ON=C(c3cccc(Br)c3)[C@@H]2C1 | 13.3
CCC(=Nc1ccc2c(c1)CCC2)c1c(O)n(C2CCCCC2)c(=O)[nH]c1=O | -15.8
CCOC(=O)CSc1nnc(NC(=O)c2ccc3c(c2)OCO3)s1 | 7.58
COC(=O)c1ccc(CN2C(=O)c3ccccc3C2=O)o1 | 23.2
Cc1ccc(S(=O)(=O)Nc2cc(C)c(O)c(S(=O)(=O)c3ccc(C)cc3)c2)cc1 | -27.6
Cn1nnnc1SCC(=O)N1CCOCC1 | 16.2
O=C(O[C@@H](C(=O)O)[C@@H](OC(=O)c1ccccc1)C(=O)O)c1ccccc1 | 15.9
CCCCOC(=O)C1[C@H]2C(=O)N(CCc3ccccc3)C[C@]23C=C[C@H]1O3 (stereo partly drawn) | 0.875
CCOC(=O)Cc1nn[nH]n1 | 32.3
O=C(c1cccc(Cl)c1)N1CCN(Cc2ccc3c(c2)OCO3)CC1 | -16.6
Nc1nc(Cl)cc(-c2ccccc2)n1 | -4.54
O=C(CNC(=O)c1cccc(Br)c1)N/N=C/c1cccs1 | 11.4
Nc1ccc2c(C(F)(F)F)cc(C(F)(F)F)nc2n1 | 8.38

Compound | hERG current change (%, negative = inhibition) at 10uM [%]
O=C(CCC(=O)Nc1ccccc1)N/N=C/c1cccnc1 | 11.5
C=CCn1c(SCC(=O)Nc2sc3c(c2C#N)CCC3)nnc1C1COc2ccccc2O1 (stereo not drawn) | 4.66
CCn1c2ccccc2c2nnc(SCC(N)=O)nc21 | 4.23
Cc1nc(NC(=O)CSc2nnc(-c3ccncc3)n2C)sc1C | 28.2
CCOC(=O)c1cccc(NC(=O)CSc2nnc(COc3ccc(Cl)cc3)o2)c1 | 16.3
CN1CCN(C(=O)/C(=C/c2ccco2)NC(=O)c2ccccc2)CC1 | -67.6
CCCOC(=O)C1NC(=O)N2C(C(=O)OCCC)C(C)(C)S[C@H]12 (stereo partly drawn) | 13.5
O=C(NC1CCCCC1)C(c1ccccc1)N(C(=O)c1csnn1)C1CC1 (stereo not drawn) | 8.74
Cc1c(/C=N/NC(=O)c2ccc(Br)o2)cnn1C | 21
CCC(C)(C)NC(=O)C(c1ccc(O)cc1)N(Cc1ccco1)C(=O)CCC(=O)Nc1ccccn1 (stereo not drawn) | 9.85
CSc1nc2nc(-c3ccccc3)cc(C(F)(F)F)n2n1 | -3.06
O=C(Cn1nnc2ccccc2c1=O)N1CCOCC1 | -3.77
Cc1cc(C)c(S(=O)(=O)Nc2nnc(C3CCCCC3)s2)c(C)c1 | 9.52
O=C(CCc1ccccc1)Nc1ncc2c(n1)CCCC2=O | -15.6
Cc1ccccc1-c1nc(CS(=O)(=O)CC(=O)NC2CCCCC2C)c(C)o1 (stereo not drawn) | -9.77
CCN(CC)S(=O)(=O)c1ccc(OCC2CCCCO2)c([N+](=O)[O-])c1 (stereo not drawn) | -12.6
COc1cccc(NC(=O)CN(C)C(=O)c2ccc3c(c2)CC(c2ccccc2)OC3=O)c1 (stereo not drawn) | -66.9
COc1ccc(C(=O)COC(=O)CNS(=O)(=O)c2ccc(C)cc2)cc1 | 3.56
COC(=O)c1c(-c2ccc(OC)cc2)oc2ccc(-c3cc(OC)c(OC)c(OC)c3)cc12 | 8.8

Compound | hERG current change (%, negative = inhibition) at 10uM [%]
CC(NCC(O)COc1ccccc1)C1COc2ccccc2O1 (stereo not drawn) | -46.7
COc1ccc2ccccc2c1/C=N/Nc1ccc(Cl)c(C(=O)O)c1 | 15.8
COc1ccccc1C(=O)NC1CCCc2ccccc21 (stereo not drawn) | -2.04
Cc1ccc(-c2noc(C3CCCN(C(=O)c4ccc(F)cc4F)C3)n2)cc1 (stereo not drawn) | -28.9
CNC(=O)c1ccc(OCc2ccccc2)c(OC)c1 | 3.11
Cc1cc(C(=O)Nc2ccc(S(=O)(=O)Nc3onc(C)c3C)cc2)c(C)o1 | 4.88
C/C(=N\NC(=O)c1nnn(-c2nonc2N)c1CN1CCCCCC1)c1ccc(Br)cc1 | 24.6
O=C(CCSc1ccccc1)N1CCCC1 | 10.9
Cc1nc(NC(=O)C(Cl)Cl)sc1C(=O)N(C)C | 5.44
COc1cc(NC(=S)N2CCCC(C)C2)cc(OC)c1OC (stereo not drawn) | 16.8
Cc1ccsc1C(=O)Nc1nnc(-c2ccco2)o1 | 8.69
O=C(O)[C@H](Cc1ccccc1)NC(=O)N1CCC(Cc2ccccc2)CC1 | -3.47
Cc1nc(NC(N)=S)sc1C(=O)Nc1ccccc1 | 5.18
CC(C)COc1ccc(-c2nn(-c3ccccc3)cc2C(=O)Nc2nccs2)cc1 | 13.9
O=C(CSc1nn(-c2ccc(Cl)cc2)c(=S)s1)N1CCN(C(=O)c2ccco2)CC1 | -70.5
CC(C)CC(=O)Nc1cc2c3c(c1)CCN3C(=O)CC2 | 4.15
O=C(COc1c(Br)cc(Br)cc1Br)N/N=C/c1ccco1 | 14.2
CC(C)(C#N)NC(=O)c1ccco1 | 4.37
CCOc1ccc(Oc2ccc(Cl)cc2N)cc1.Cl | 2.9
